± gives the standard deviation of the averaged measurements. Laboratory Escherichia coli strains with one amino-acid change in an essential protein, pooled on minimal glucose agar with carbenicillin or gentamicin at twice the control MIC (plus kanamycin and chloramphenicol for the plasmids), 48 h. Fold change of barcode share against drug-free plates; higher = less susceptible. Active = above 20 in both replicates (the paper's putatively resistant). '<' = one read or none on drug, '>' = one read or none on a drug-free plate. Shares are relative, so most strains fall below 1 when a few take over. Listed are strains with at least 15 reads on both drug-free plates, and hits; most hits rest on fewer reference reads. Replicate rank correlation about 0.5. Edits are read from barcodes.
B1: pyrG M39W (protein)
chain: MTTNYIFVTGGVVSSLGKGIAAASLAAILEARGLNVTIWKLDPYINVDPGTMSPIQHGEVFVTEDGAETDLDLGHYERFIRTKMSRRNNFTTGRIYSDVLRKERRGDYLGATVQVIPHITNAIKERVLEGGEGHDVVLVEIGGTVGDIESLPFLEAIRQMAVEIGREHTLFMHLTLVPYMAASGEVKTKPTQHSVKELLSIGIQPDILICRSDRAVPANERAKIALFCNVPEKAVISLKDVDSIYKIPGLLKSQGLDDYICKRFSLNCPEANLSEWEQVIFEEANPVSEVTIGMVGKYIELPDAYKSVIEALKHGGLKNRVSVNIKLIDSQDVETRGVEILKGLDAILVPGGFGYRGVEGMITTARFARENNIPYLGICLGMQVALIDYARHVANMENANSTEFVPDCKYPVVALITEWRDENGNVEVRSEKSDLGGTMRLGAQQCQLVDDSLVRQLYNAPTIVERHRHRYEVNNMLLKQIEDAGLRVAGRSGDDQLVEIIEVPNHPWFVACQFHPEFTSTPRDGHPLFAGFVKAASEFQKRQAK
B2: pyrG M39Q (protein)
chain: MTTNYIFVTGGVVSSLGKGIAAASLAAILEARGLNVTIQKLDPYINVDPGTMSPIQHGEVFVTEDGAETDLDLGHYERFIRTKMSRRNNFTTGRIYSDVLRKERRGDYLGATVQVIPHITNAIKERVLEGGEGHDVVLVEIGGTVGDIESLPFLEAIRQMAVEIGREHTLFMHLTLVPYMAASGEVKTKPTQHSVKELLSIGIQPDILICRSDRAVPANERAKIALFCNVPEKAVISLKDVDSIYKIPGLLKSQGLDDYICKRFSLNCPEANLSEWEQVIFEEANPVSEVTIGMVGKYIELPDAYKSVIEALKHGGLKNRVSVNIKLIDSQDVETRGVEILKGLDAILVPGGFGYRGVEGMITTARFARENNIPYLGICLGMQVALIDYARHVANMENANSTEFVPDCKYPVVALITEWRDENGNVEVRSEKSDLGGTMRLGAQQCQLVDDSLVRQLYNAPTIVERHRHRYEVNNMLLKQIEDAGLRVAGRSGDDQLVEIIEVPNHPWFVACQFHPEFTSTPRDGHPLFAGFVKAASEFQKRQAK
B3: pyrG M39D (protein)
chain: MTTNYIFVTGGVVSSLGKGIAAASLAAILEARGLNVTIDKLDPYINVDPGTMSPIQHGEVFVTEDGAETDLDLGHYERFIRTKMSRRNNFTTGRIYSDVLRKERRGDYLGATVQVIPHITNAIKERVLEGGEGHDVVLVEIGGTVGDIESLPFLEAIRQMAVEIGREHTLFMHLTLVPYMAASGEVKTKPTQHSVKELLSIGIQPDILICRSDRAVPANERAKIALFCNVPEKAVISLKDVDSIYKIPGLLKSQGLDDYICKRFSLNCPEANLSEWEQVIFEEANPVSEVTIGMVGKYIELPDAYKSVIEALKHGGLKNRVSVNIKLIDSQDVETRGVEILKGLDAILVPGGFGYRGVEGMITTARFARENNIPYLGICLGMQVALIDYARHVANMENANSTEFVPDCKYPVVALITEWRDENGNVEVRSEKSDLGGTMRLGAQQCQLVDDSLVRQLYNAPTIVERHRHRYEVNNMLLKQIEDAGLRVAGRSGDDQLVEIIEVPNHPWFVACQFHPEFTSTPRDGHPLFAGFVKAASEFQKRQAK
B4: pyrG L208A (protein)
chain: MTTNYIFVTGGVVSSLGKGIAAASLAAILEARGLNVTIMKLDPYINVDPGTMSPIQHGEVFVTEDGAETDLDLGHYERFIRTKMSRRNNFTTGRIYSDVLRKERRGDYLGATVQVIPHITNAIKERVLEGGEGHDVVLVEIGGTVGDIESLPFLEAIRQMAVEIGREHTLFMHLTLVPYMAASGEVKTKPTQHSVKELLSIGIQPDIAICRSDRAVPANERAKIALFCNVPEKAVISLKDVDSIYKIPGLLKSQGLDDYICKRFSLNCPEANLSEWEQVIFEEANPVSEVTIGMVGKYIELPDAYKSVIEALKHGGLKNRVSVNIKLIDSQDVETRGVEILKGLDAILVPGGFGYRGVEGMITTARFARENNIPYLGICLGMQVALIDYARHVANMENANSTEFVPDCKYPVVALITEWRDENGNVEVRSEKSDLGGTMRLGAQQCQLVDDSLVRQLYNAPTIVERHRHRYEVNNMLLKQIEDAGLRVAGRSGDDQLVEIIEVPNHPWFVACQFHPEFTSTPRDGHPLFAGFVKAASEFQKRQAK
B5: pyrG L208Q (protein)
chain: MTTNYIFVTGGVVSSLGKGIAAASLAAILEARGLNVTIMKLDPYINVDPGTMSPIQHGEVFVTEDGAETDLDLGHYERFIRTKMSRRNNFTTGRIYSDVLRKERRGDYLGATVQVIPHITNAIKERVLEGGEGHDVVLVEIGGTVGDIESLPFLEAIRQMAVEIGREHTLFMHLTLVPYMAASGEVKTKPTQHSVKELLSIGIQPDIQICRSDRAVPANERAKIALFCNVPEKAVISLKDVDSIYKIPGLLKSQGLDDYICKRFSLNCPEANLSEWEQVIFEEANPVSEVTIGMVGKYIELPDAYKSVIEALKHGGLKNRVSVNIKLIDSQDVETRGVEILKGLDAILVPGGFGYRGVEGMITTARFARENNIPYLGICLGMQVALIDYARHVANMENANSTEFVPDCKYPVVALITEWRDENGNVEVRSEKSDLGGTMRLGAQQCQLVDDSLVRQLYNAPTIVERHRHRYEVNNMLLKQIEDAGLRVAGRSGDDQLVEIIEVPNHPWFVACQFHPEFTSTPRDGHPLFAGFVKAASEFQKRQAK
B6: pyrH L82A (protein)
chain: MATNAKPVYKRILLKLSGEALQGTEGFGIDASILDRMAQEIKELVELGIQVGVVIGGGNLFRGAGLAKAGMNRVVGDHMGMAATVMNGLAMRDALHRAYVNARLMSAIPLNGVCDSYSWAEAISLLRNNRVVILSAGTGNPFFTTDSAACLRGIEIEADVVLKATKVDGVFTADPAKDPTATMYEQLTYSEVLEKELKVMDLAAFTLARDHKLPIRVFNMNKPGALRRVVMGEKEGTLITE
B7: pyrH V132W (protein)
chain: MATNAKPVYKRILLKLSGEALQGTEGFGIDASILDRMAQEIKELVELGIQVGVVIGGGNLFRGAGLAKAGMNRVVGDHMGMLATVMNGLAMRDALHRAYVNARLMSAIPLNGVCDSYSWAEAISLLRNNRVWILSAGTGNPFFTTDSAACLRGIEIEADVVLKATKVDGVFTADPAKDPTATMYEQLTYSEVLEKELKVMDLAAFTLARDHKLPIRVFNMNKPGALRRVVMGEKEGTLITE
B8: pyrH V132P (protein)
chain: MATNAKPVYKRILLKLSGEALQGTEGFGIDASILDRMAQEIKELVELGIQVGVVIGGGNLFRGAGLAKAGMNRVVGDHMGMLATVMNGLAMRDALHRAYVNARLMSAIPLNGVCDSYSWAEAISLLRNNRVPILSAGTGNPFFTTDSAACLRGIEIEADVVLKATKVDGVFTADPAKDPTATMYEQLTYSEVLEKELKVMDLAAFTLARDHKLPIRVFNMNKPGALRRVVMGEKEGTLITE
B9: pyrH F218A (protein)
chain: MATNAKPVYKRILLKLSGEALQGTEGFGIDASILDRMAQEIKELVELGIQVGVVIGGGNLFRGAGLAKAGMNRVVGDHMGMLATVMNGLAMRDALHRAYVNARLMSAIPLNGVCDSYSWAEAISLLRNNRVVILSAGTGNPFFTTDSAACLRGIEIEADVVLKATKVDGVFTADPAKDPTATMYEQLTYSEVLEKELKVMDLAAFTLARDHKLPIRVANMNKPGALRRVVMGEKEGTLITE
B10: pyrH F218W (protein)
chain: MATNAKPVYKRILLKLSGEALQGTEGFGIDASILDRMAQEIKELVELGIQVGVVIGGGNLFRGAGLAKAGMNRVVGDHMGMLATVMNGLAMRDALHRAYVNARLMSAIPLNGVCDSYSWAEAISLLRNNRVVILSAGTGNPFFTTDSAACLRGIEIEADVVLKATKVDGVFTADPAKDPTATMYEQLTYSEVLEKELKVMDLAAFTLARDHKLPIRVWNMNKPGALRRVVMGEKEGTLITE
B11: ribA L47A (protein)
chain: MQLKRVAEAKLPTPWGDFLMVGFEELATGHDHVALVYGDISGHTPVAARVHSECLTGDALFSLRCDCGFQLEAALTQIAEEGRGILLYHRQEGRNIGLLNKIRAYALQDQGYDTVEANHQLGFAADERDFTLCADMFKLLGVNEVRLLTNNPKKVEILTEAGINIVERVPLIVGRNPNNEHYLDTKAEKMGHLLNK
B12: ribA L47W (protein)
chain: MQLKRVAEAKLPTPWGDFLMVGFEELATGHDHVALVYGDISGHTPVWARVHSECLTGDALFSLRCDCGFQLEAALTQIAEEGRGILLYHRQEGRNIGLLNKIRAYALQDQGYDTVEANHQLGFAADERDFTLCADMFKLLGVNEVRLLTNNPKKVEILTEAGINIVERVPLIVGRNPNNEHYLDTKAEKMGHLLNK
B13: ribA L47Q (protein)
chain: MQLKRVAEAKLPTPWGDFLMVGFEELATGHDHVALVYGDISGHTPVQARVHSECLTGDALFSLRCDCGFQLEAALTQIAEEGRGILLYHRQEGRNIGLLNKIRAYALQDQGYDTVEANHQLGFAADERDFTLCADMFKLLGVNEVRLLTNNPKKVEILTEAGINIVERVPLIVGRNPNNEHYLDTKAEKMGHLLNK

Each protein was assayed against Escherichia coli (laboratory strain) (assay: barcode share on antibiotic plates over drug-free plates; higher = less susceptible). Details: antibiotic: carbenicillin; 2× MIC (3.1 µg/mL).
Description: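 A pool of E. coli strains, each edited to carry one amino-acid change in an essential protein, was grown for 48 h on minimal glucose agar with or without antibiotic; strain barcodes were sequenced; mean of two replicates.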
With B1 the “fold change of barcode share” value was 0.557 ± 0.027. With B2 the “fold change of barcode share” value was 0.313 ± 0.0058. B3 was tested, and the “fold change of barcode share” value was 0.277 ± 0.084. For B4, the “fold change of barcode share” value was 0.494 ± 0.26. B5 was tested, and the “fold change of barcode share” value was 0.323 ± 0.13. In the case of B6, the “fold change of barcode share” value is reported as 0.518 ± 0.14. B7 was tested, and the “fold change of barcode share” value was 0.309 ± 0.11. In the case of B8, the “fold change of barcode share” value is reported as 2.1 ± 2. For B9, the “fold change of barcode share” value was 0.275 ± 0.2. In the case of B10, the “fold change of barcode share” value is reported as 0.339 ± 0.25. In the case of B11, the “fold change of barcode share” value is reported as 0.399 ± 0.31. With B12 the “fold change of barcode share” value was 0.323 ± 0.17. In the case of B13, the “fold change of barcode share” value is reported as 0.219 ± 0.062.

Same assay, conditions: antibiotic: gentamicin; 2× MIC (MIC 0.45 µg/mL)
B1 was tested, and the “fold change of barcode share” value was under 0.0119. B2 was tested, and the “fold change of barcode share” value was under 0.00444. With B3 the “fold change of barcode share” value was under 0.00373. With B4 the “fold change of barcode share” value was under 0.0102. In the case of B5, the “fold change of barcode share” value is reported as under 0.0165. In the case of B6, the “fold change of barcode share” value is reported as 0.0968 ± 0.14. For B7, the “fold change of barcode share” value was 0.0161 ± 0.0011. B8 was tested, and the “fold change of barcode share” value was 0.024 ± 0.021. With B9 the “fold change of barcode share” value was under 0.00602. With B10 the “fold change of barcode share” value was 0.00791 ± 0.001. With B11 the “fold change of barcode share” value was under 0.00408. B12 was tested, and the “fold change of barcode share” value was 0.011 ± 0.0068. B13 was tested, and the “fold change of barcode share” value was under 0.0065.

Reference: the supplement of paper PMC11876631
